Source: PMC4336329 (PLoS ONE, 2015)
Among all 310,000 compounds or so, about 14,000 (4.5%) showed an effect of 50% or more. The effect is printed as a negative number. This is one part of the list. *1 amine or outer side, *2 acyl side, *3 side chain or, on linkers, in order; H or OH if unused. Where a SMILES comes first, the peptide text is derived from it. Bridges are numbered along the chain shown (N, C = ends). [ ]: non-standard residue; d: D form. ξ: configuration not given here. hSer(Ph(2-I,4-NO2,6-CO)) = O=C([C@H](CCOc1c(I)cc([N+](=O)[O-])cc1C(=O)[*:3])N[*:1])[*:2]; ξD = NC(CC(=O)O)C(=O)O

target: human ether-à-go-go-related gene (hERG) potassium channel (human, UniProt Q12809); assay: primary screen, population patch clamp on CHO cells stably expressing hERG
Sequence (Q12809 whole entry, looked up): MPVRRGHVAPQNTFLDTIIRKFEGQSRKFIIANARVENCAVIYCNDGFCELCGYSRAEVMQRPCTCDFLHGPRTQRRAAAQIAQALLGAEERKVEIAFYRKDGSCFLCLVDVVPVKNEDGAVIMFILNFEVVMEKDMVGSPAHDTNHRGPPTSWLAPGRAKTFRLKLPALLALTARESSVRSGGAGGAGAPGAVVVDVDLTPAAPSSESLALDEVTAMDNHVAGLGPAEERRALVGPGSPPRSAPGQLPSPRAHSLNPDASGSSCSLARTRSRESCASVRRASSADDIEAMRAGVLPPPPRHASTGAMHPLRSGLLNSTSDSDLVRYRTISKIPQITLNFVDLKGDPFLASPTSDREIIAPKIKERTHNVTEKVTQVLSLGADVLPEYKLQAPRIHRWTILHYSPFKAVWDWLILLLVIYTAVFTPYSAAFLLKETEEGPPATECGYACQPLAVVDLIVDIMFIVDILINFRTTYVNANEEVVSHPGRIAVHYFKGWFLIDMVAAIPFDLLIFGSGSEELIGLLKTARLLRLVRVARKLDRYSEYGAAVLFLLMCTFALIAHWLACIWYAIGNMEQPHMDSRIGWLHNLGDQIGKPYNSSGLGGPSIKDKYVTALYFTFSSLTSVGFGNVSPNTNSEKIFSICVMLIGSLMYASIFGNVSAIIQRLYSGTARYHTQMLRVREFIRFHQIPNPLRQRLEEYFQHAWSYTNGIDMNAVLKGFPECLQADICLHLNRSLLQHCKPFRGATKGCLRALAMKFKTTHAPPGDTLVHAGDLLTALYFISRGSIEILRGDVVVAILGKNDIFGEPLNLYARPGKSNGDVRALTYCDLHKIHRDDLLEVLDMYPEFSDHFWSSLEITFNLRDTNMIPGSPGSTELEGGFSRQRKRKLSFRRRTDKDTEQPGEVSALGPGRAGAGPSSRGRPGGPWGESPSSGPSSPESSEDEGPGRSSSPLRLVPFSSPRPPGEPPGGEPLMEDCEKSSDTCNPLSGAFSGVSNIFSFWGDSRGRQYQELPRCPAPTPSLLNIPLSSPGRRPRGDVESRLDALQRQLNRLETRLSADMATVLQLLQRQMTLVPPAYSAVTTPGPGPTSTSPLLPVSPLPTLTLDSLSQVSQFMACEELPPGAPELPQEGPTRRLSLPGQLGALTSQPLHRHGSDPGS
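Note: peak tail current of the secondary pulse compared with the same well before compound.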

SMILES | hERG current change (%, negative = inhibition) at 10uM [%]
CN(C)C(=O)C[n+]1cccc(/C=N/O)c1 | 8.28
CN1CCC(N(C)S(=O)(=O)c2ccc(NC(=O)c3cccc(C#N)c3)cc2)CC1 | 2.75
Cc1ccccc1CN1CCSc2sccc2C1=O | -12.8
COc1ccc(CC(=O)N2CCN=C2SCc2cccc([N+](=O)[O-])c2)cc1 | -5.33
COc1ccc(CN2CCNC(=O)C2CC(=O)NCCC2=CCCCC2)cc1OC (stereo not shown) | 7.31
O=C(NCc1ccc2c(c1)CCO2)Nc1ccccc1 | 9.77
Cc1ccccc1C(OCC(O)CN1CCC(C(N)=O)CC1)c1ccccc1 (stereo not shown) | -59.3
O=C(CCc1nnc(-c2ccc3c(c2)OCO3)o1)NCCc1ccccc1F | -12.9
CCCN1CC=C2C(C#N)=C(N)C(C#N)(C#N)C(c3cc(OC)ccc3OC)C2C1 (stereo not shown) | -19.8
CCOC(=O)c1cc(-c2ccccc2)sc1NC(=O)C(C)Sc1nnc(N)s1 (stereo not shown) | 26.2
COc1ccc(NC(=O)/C(C#N)=C\C=C\c2ccco2)cc1 | 4.89
COc1ccc(-c2cn3cc(C(=O)NN)ccc3n2)cc1 | 15.4
CCN=c1sc(C(=O)NCCc2ccccc2)cc(=O)n1CC | -6.26
Cc1ccc(S(=O)(=O)Nc2nc3ccccc3nc2NCc2ccco2)cc1C | -6.13
O=C(CNC(=O)c1ccc(S(=O)(=O)N2CCCCC2)cc1)N/N=C/c1ccco1 | 9.7
Cc1ccc(N)cc1O | 18.2
Cn1ncc(C#N)c1NC(=O)C1CC(c2ccccc2Cl)=NO1 (stereo not shown) | -11.5
CCCCC(=O)OCc1c(-c2cccc(OC)c2)ncc2ccccc12 | 16.5
COc1ccc(C(=O)CSc2[nH]c(=O)cc(C(F)(F)F)c2C#N)cc1 | 18.2
CC(OC(=O)C1CCN(c2ccc(C(F)(F)F)cn2)CC1)C(=O)Nc1cccc([N+](=O)[O-])c1 (stereo not shown) | -14.1
CC[C@@]1(O)C(=O)OCc2c1cc1n(c2=O)Cc2cc3c(CN(C)C)c(O)ccc3nc2-1.Cl | 13.6
C/C(=N\Nc1ccc(C(=O)O)cc1)c1nc2ccccc2n1C | 9.56
COCCN(C(=O)COC(=O)CSc1ccc2ccccc2c1)c1c(N)n(Cc2ccccc2)c(=O)[nH]c1=O | 3.86
COC(=O)Cc1c(C)c2ccc(O)c(CN3CCCC(C)C3)c2oc1=O (stereo not shown) | 5.43
CCOc1ccccc1NC(=O)CSc1nc2c(c(=O)n(C)c(=O)n2C)n1C | 4.67
O=C(COC(=O)c1cccc(OC(F)F)c1)NC1CCCC1 | -9.43
Cc1cc(S(=O)(=O)N2CCOCC2)ccc1OCC(=O)Nc1ccccc1F | 18.9
O=C(/C=C/c1ccccc1)NCc1ccco1 | 15.1

SMILES | hERG current change (%, negative = inhibition) at 10uM [%]
C/C(=N\OCC(=O)OCC(=O)N(Cc1ccccc1)C(C)(C)C)c1ccc2c(c1)OCO2 | 15.1
C[C@@H]1NC(=O)c2cc([N+](=O)[O-])cc(I)c2OCC[C@@H](C(=O)NC(CC(=O)O)C(N)=O)NC(=O)[C@H](CC(N)=O)NC1=O (stereo partly shown) (AN[hSer(Ph(2-I,4-NO2,6-CO))][ξD]-NH2; lactam N-3) | 30.2
CCc1cc(C(=O)OCC(=O)N2CCC(c3ccccc3)=N2)sc1C | 21.1
CC(C)Sc1nnc(NC(=O)C2CC2)s1 | -2.93
O=C(COC(=O)c1ccccc1C(=O)OCC(=O)NCCc1c[nH]c2ccccc12)NCCc1c[nH]c2ccccc12 | -2.91
CCCOC(=O)c1ccc(Cl)c(NC(=O)c2ccc(-c3ccccc3)cc2)c1 | -5.63
Fc1cc(F)cc(Nc2nc(Cl)nc(NC3CCCC3)n2)c1 | 8.89
Cc1ccccc1CNS(=O)(=O)c1ccc2c(c1)OCCO2 | -27
Cc1ccc(C(=O)O/N=C2\CC3CCC2(C)C3(C)C)cc1 (stereo not shown) | -9.45
CC1CCCN(C(=O)CSc2nnc(-c3ccc(O)cc3)o2)C1 (stereo not shown) | 12
C=CCn1c(=S)[nH]c2nc3c(cc2c1=O)CCCC3 | -1.63
N#CNC(=Nc1ccc(F)cc1)SCc1ccccc1 | -8.34
Cn1c(=O)[nH]c(=O)c2c1nc([N+](=O)[O-])n2Cc1ccccc1 | 1.08
Clc1ccccc1CSc1snnc1-c1ccccc1 | 0.469
C=C1CCC2C(C)(C)[C@H](O)CC[C@@]2(C)[C@@H]1COc1cc(=O)oc2ccccc12 (stereo partly shown) | -11.5
O=C(Nc1ccccn1)C1(c2ccccc2)CCCC1 | -3.92
COc1ccccc1NC(=O)CSc1nc2[nH]ncc2c(=O)[nH]1 | 6.31
CCN(C(=O)CSc1nnc(-c2ccc3c(c2)OCO3)o1)C1CCS(=O)(=O)C1 (stereo not shown) | 3.88
COc1cccc(CNC(=O)CCC2CCCN(C(=O)C3=CC(=O)CC(C)(C)O3)C2)c1 (stereo not shown) | 15.9
CCCC(=O)C1C(=O)CC(C)(C)C(c2cc(C)no2)C1=O (stereo not shown) | -6.76
CCC(C)NC(=O)C1CCC(CNS(=O)(=O)c2cccc3nsnc23)CC1 (stereo not shown) | 11
O=C(NC1CCCCC1)C(c1ccco1)N(C(=O)C(F)(F)F)C1CC1 (stereo not shown) | -4.69
COc1ccc(C(=O)Nc2ccc(S(=O)(=O)N3CCN(C)CC3)cc2)cc1[N+](=O)[O-] | 6.49
CC12CCC(c3nnc(SCC(=O)Nc4cccc5ccccc45)nc31)C2(C)C (stereo not shown) | -17.9
Cn1c(=O)[nH]c(=O)c2c1nc(Br)n2CCCCSc1nc2ccccc2o1 | -55.6
O=C(Cn1nc(-c2ccco2)ccc1=O)Nc1cc(C(F)(F)F)ccc1Cl | 7.12
S=c1[nH]c2cc(Cl)ccc2s1 | 15.4
